# From the supplement of paper PMC7826260
# Some of the results follow. One pool of 16,384 single-stranded DNAs met each Rep nickase domain in vitro at 3 µM enzyme and 37 °C for 1 h; the strands have 90 letters, of which the middle is given. Values are log2 of uncut reads against the no-enzyme pool; more negative means more cut, near 0 not cut, and no call is made. Because reads are shares of a total, they shift together, so uncut sequences can rise above 0 when many others are cut.
# Test system: T1, Rep nickase domain of Muscovy duck circovirus
# T1 sequence (protein, residues 1-111, tag omitted): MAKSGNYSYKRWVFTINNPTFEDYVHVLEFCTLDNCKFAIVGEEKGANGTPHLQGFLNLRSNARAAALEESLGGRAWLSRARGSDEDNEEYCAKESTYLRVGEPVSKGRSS
# Assay: uncleaved DNA left, log2 of reads against the no-enzyme library (log2 ratio); higher = less cleavage (more negative = more Rep cleavage of the k-mer); sequences stand for … in CTCGTCCG…ACCGGAGA
# Procedure: (§1)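 A pool of 90-nt single-stranded DNAs with seven random bases just before the constant AC of the nick site (name = the seven bases) was cut by 3 µM recombinant His6-SUMO-tagged Rep nickase domain (300 nM DNA, 50 mM HEPES pH 8.0, 50 mM NaCl, 1 mM MnCl2, 1 h, 37 °C, three replicates). Uncut DNA was amplified and sequenced.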
row,Sequence,uncleaved DNA left (log2)
1,AGGACCT,0.0532
2,GAAGGAG,0.0906
3,AAACGAC,-0.0444
4,GCGCAAG,0.0461
5,GGTAAAG,0.0885
6,ACGTATC,0.0346
7,GACTACC,0.0646
8,GTCTGTA,0.108
9,TGCTTCC,-0.123
10,AGGGAGG,0.134
11,CTGTATT,-3.36
12,TCAACCA,-0.204
13,TTGTAAG,-0.0796
14,ACGAACG,-0.135
15,GCCCAAA,-0.052
16,TGTGCAT,-0.0634
17,AATGCAG,0.00249
18,ATCACGG,0.0766
19,CCATACA,-0.293
20,TCTAGCG,-0.034

row,Sequence,uncleaved DNA left (log2)
1,ATCTAAA,-0.022
2,ATCCCCC,-0.198
3,GTAGGAG,-0.0155
4,CCCCAGA,-0.0321
5,ACACCGG,-0.0506
6,CCTTCGA,0.0302
7,CTTTTGC,0.0214
8,GTACTGC,0.024
9,ACGCCGG,-0.0069
10,CTGATAG,0.116
11,CACTGCC,-0.125
12,GTCTTGT,0.0249
13,TGACGCA,0.0663
14,GGTTAAA,0.0433
15,CAACAGG,-0.088
16,CTCTGTT,-2.55
17,GTTTGCC,-0.0623
18,TGTTCGA,0.000967
19,TTGTGAT,0.0422
20,GATGGAG,0.0707

# Test system: T2, Rep nickase domain of banana bunchy top virus
# T2 sequence (protein, residues 1-94, tag omitted): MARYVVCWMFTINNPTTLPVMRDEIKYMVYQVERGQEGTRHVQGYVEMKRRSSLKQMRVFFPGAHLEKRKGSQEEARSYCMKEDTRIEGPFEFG
# Assay: as above
# Procedure: as §1
row,Sequence,uncleaved DNA left (log2)
1,AGGACCT,0.0456
2,GAAGGAG,0.166
3,AAACGAC,-0.117
4,GCGCAAG,0.157
5,GGTAAAG,0.092
6,ACGTATC,0.163
7,GACTACC,0.0587
8,GTCTGTA,-0.00198
9,TGCTTCC,-0.0349
10,AGGGAGG,0.0632
11,CTGTATT,-3.04
12,TCAACCA,-0.0613
13,TTGTAAG,-0.212
14,ACGAACG,-0.0123
15,GCCCAAA,0.0781
16,TGTGCAT,-0.0113
17,AATGCAG,-0.0583
18,ATCACGG,0.0953
19,CCATACA,-0.0501
20,TCTAGCG,-0.0724
